Source: PubChem BioAssay AID624418 (National Center for Advancing Translational Sciences (NCATS), 2012)
The whole screen tested about 410,000 compounds, of which about 530 (0.13%) were called active. Inconclusive means that the source gave no clear call. Such entries were picked first, then a sample of the others. The call rests on the fitted dose curve; in most records, active means well fitted inhibition curve with a large enough effect; inconclusive means small, poorly fitted or top-dose-only effect, or another doubt; inactive means no such curve, though single readings can be large or run the other way. Potencies of inconclusive entries are doubtful fits and often do not repeat.

Test: qHTS of GLP-1 Receptor Inverse Agonists: Cytotox Screen
Details: HEK293 cAMP-luciferase reporter cells, luminescence, 24 h; activity change, negative = inhibition: at 38.3 µM (top of the series) unless noted
Procedure, shortened: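 A 23 nL compound transfer followed 12 hours of cell culture at 37 deg C; exposure then lasted 24 hr. Luciferase assay detection reagent was dispensed and plates read for luminescence after a 12 min room-temperature wait.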
On the % scale 0 is the no-effect control and ±100 the full control effect; potency means the concentration at half of the fitted maximal effect.

Compound | Potency | activity change, negative = inhibition
ClC(Cl)(Cl)c1nc2ccccc2n2nncc12 | inconclusive: 15.8 µM [inhibitor, partial curve, poor fit] | –
CN1CCN(c2ccc(NC(=S)NC(=O)/C=C/c3ccco3)cc2)CC1 | inconclusive: 28.2 µM [inhibitor, single point] | –
CC(=O)n1c(Cl)c(NC(=O)CCl)c2ccccc21 | inconclusive: 10 µM [inhibitor, single point] | –
COc1cc(C2Nc3c(C)cc(C)cc3-c3cc(C)nn32)cc(OC)c1O (stereo not drawn) | inconclusive: 12.6 µM [inhibitor, single point] | –
COc1cc(CNC(C)(C)CO)cc(Br)c1OCc1ccc(Cl)cc1 | inconclusive: 28.2 µM [inhibitor, single point] | –
CCOc1cccc(-c2c(C(=O)N/N=C/c3ccc(C)s3)nnn2-c2nonc2N)c1 | inconclusive: 28.2 µM [inhibitor, single point] | –
COc1c(C)cc(C(=O)C2CCCN(Cc3ccccn3)C2)cc1C (stereo not drawn) | inconclusive: 15.8 µM [inhibitor, single point] | –
CCC(=C(c1ccc(OC)cc1)c1ccc(OC)cc1)c1cn(CC(O)CN2CCN(C)CC2)c2ccccc12 (stereo not drawn) | inconclusive: 28.2 µM [inhibitor, single point] | –
O=C1C=CC(=O)C(CNc2ccc(C(=O)OCc3ccccc3)cc2)=C1 | inconclusive: 10 µM [inhibitor, partial curve, poor fit] | –
Nc1n[nH]c(N)c1N=Nc1ccc(Cl)cc1 | inconclusive: 11.2 µM [inhibitor, partial curve] | –
CC12CC[C@H]3[C@@H](CCC4(O)C[C@H](O)CCC34/C=N/NC(=O)c3ccccc3O)C1(O)CCC2C1=CC(=O)OC1 (stereo partly drawn) | inconclusive: 11.2 µM [inhibitor, single point] | –
CCOC(=O)[C@]12Cc3cc(OC)ccc3[C@H]1N(CC(=O)OC)C(=O)c1cc(OC)ccc12 | inconclusive: 11.2 µM [inhibitor, single point] | –
Oc1c(Br)cc(Br)cc1CN1CCN(Cc2ccccc2)CC1 | – | inactive: 5.97%
Cc1cc(OC(F)F)ccc1NC(=O)Nc1ccc([N+](=O)[O-])cc1 | inconclusive: 10 µM [inhibitor, single point] | –
COc1ccc(C2Nc3cc(OC)ccc3-n3cccc32)cc1 (stereo not drawn) | – | inactive: 181%
COc1ccc(CN(CCc2c[nH]c3ccccc23)Cc2ccc(OC)cc2)cc1 | inconclusive: 28.2 µM [inhibitor, single point] | –
CC(=O)c1ccc2c(c1)C1C(Cl)C(Sc3ccccc3[N+](=O)[O-])CC1C(C(=O)O)N2 (stereo not drawn) | inconclusive: 22.4 µM [inhibitor, single point] | –
Cc1cccc(NC(=O)N2CC3CC(C2)c2cccc(=O)n2C3)c1 (stereo not drawn) | inconclusive: 31.6 µM [inhibitor, single point] | –
CNC(=S)N=Nc1c(O)[nH]c2ccc(C(C)C)cc12 | inconclusive: 11.2 µM [inhibitor, single point] | –
Cc1cc(C(=O)CCl)c(C)n1-c1c(C)n(C)n(-c2ccccc2)c1=O | inconclusive: 28.2 µM [inhibitor, single point] | –

Compound | Potency | activity change, negative = inhibition
CCc1ccc(NP(=O)(Oc2ccccc2F)Oc2ccccc2F)cc1 | inconclusive: 12.6 µM [inhibitor, single point] | –
O=c1[nH]c(Cl)ccc1CN1CCOCC1 | inconclusive: 28.2 µM [inhibitor, single point] | –
C[C@@H]1O[C@@H](O[C@@H]2C=C3CCC4C(CC[C@]5(C)[C@@H](c6ccc(=O)oc6)CC[C@]45O)[C@@]3(C)CC2)[C@H](O)[C@H](O)[C@H]1O (stereo partly drawn) | – | inactive: -35.7%
COc1ccc(SC[C@H](C)CN2CC[C@H](C(C)(C)C)CCC2=O)cc1 | inconclusive: 28.2 µM [inhibitor, single point] | –
COC(=O)C1=C(c2cccc(OCc3ccccc3)c2)C[C@@H]2CC[C@H]1N2C(=O)NCc1ccccc1 | inconclusive: 10 µM [inhibitor, single point] | –
O=C(COc1ccc(Cl)cc1)N(c1ccccc1Cl)C1CN2CCC1CC2 (stereo not drawn) | inconclusive: 28.2 µM [inhibitor, single point] | –
CCN(CC)CCC(=O)Nc1cccc2c1C(=O)c1ccccc1C2=O | inconclusive: 28.2 µM [inhibitor, single point] | –
COc1ccccc1C(CCNCc1ccccc1)c1ccc(OC(C)C)cc1 (stereo not drawn) | inconclusive: 28.2 µM [inhibitor, single point] | –
CC(=O)Nc1ccc(NC(=O)COC(=O)C2(c3ccc(Cl)cc3)CCCC2)cc1 | inconclusive: 28.2 µM [inhibitor, single point] | –
C1CCCN(C2CCNCC2)CC1 | inconclusive: 2.82 µM [inhibitor, single point] | –
C=CCCC[C@@H]1OC(=O)CNC(=O)C([C@@H](C)CC)NC(=O)[C@@H]2CCCN2C(=O)C([C@@H](C)CC)OC(=O)[C@H](Cc2ccccc2)N(C)C(=O)[C@H](C(C)C)NC(=O)C1(C)C (stereo partly drawn) | inconclusive: 28.2 µM [inhibitor, single point] | –
C=CCn1c2ccccc2c2nnc(SCCCn3c(=O)[nH]c4ccccc43)nc21 | inconclusive: 10 µM [inhibitor, single point] | –
CC1CCN(S(=O)(=O)c2ccc3nc(Nc4cccc(F)c4)ccc3c2)CC1 | inconclusive: 10 µM [inhibitor, single point] | –
CCOP(=O)(OCC)c1ccc(O)cc1 | inconclusive: 28.2 µM [inhibitor, single point] | –
COc1cc2c(cc1NC(=O)C(Cl)Cl)-c1ccc(NC(=O)C(Cl)Cl)cc1C2 | inconclusive: 10 µM [inhibitor, partial curve, poor fit] | –
Cc1cc(C(=O)Nc2cccc(C(F)(F)F)c2)c2c(C)nn(-c3cccc(F)c3)c2n1 | inconclusive: 28.2 µM [inhibitor, single point] | –
Cc1ccc(-c2[nH]nc(N)c2N=Nc2cccc(Cl)c2C)cc1 | inconclusive: 11.2 µM [inhibitor, partial curve, poor fit] | –
O=C(Cc1ccc(Br)cc1)NCc1ccccc1 | inconclusive: 10 µM [inhibitor, single point] | –
CCN1CCN(CC(=O)c2c(C)n(Cc3ccccc3)c3ccc(OC)cc23)CC1 | inconclusive: 28.2 µM [inhibitor, single point] | –
COC(=O)C1=C(c2ccc(F)cc2OCc2ccccc2)C[C@@H]2CC[C@H]1N2C(=O)NCc1ccc2[nH]ccc2c1 | inconclusive: 2 µM [inhibitor, full curve, poor fit] | –

Compound | Potency | activity change, negative = inhibition
O=C1NC(=O)C2(CCCc3ccc(N(CCCl)CCCl)cc32)N1 (stereo not drawn) | inconclusive: 6.31 µM [inhibitor, partial curve] | –
CCOc1ccc(/C=N/NC(=O)COc2ccccc2-c2ccccc2)cc1 | inconclusive: 10 µM [inhibitor, partial curve, poor fit] | –
COc1ccc(Cl)cc1NC(=O)CN(C)C(=O)c1ccc(N2CCCCC2)c([N+](=O)[O-])c1 | inconclusive: 28.2 µM [inhibitor, single point] | –
O=[N+]([O-])c1ccc(N2CCNCC2)cc1N1CCCCCC1 | inconclusive: 10 µM [inhibitor, partial curve, poor fit] | –
Cc1ccccc1CN1Cc2cnnn2-c2ccccc2C1C#N (stereo not drawn) | inconclusive: 12.6 µM [inhibitor, single point] | –
COc1c(OC(C)=O)ccc(/C=C/c2ccc3cccc(OC)c3n2)c1[N+](=O)[O-] | inconclusive: 28.2 µM [inhibitor, single point] | –
C[C@]12CC[C@H](O)C[C@H]1CC[C@@H]1[C@@H]2CC[C@]2(C)[C@@H](C3=CC(=O)OC3)CC[C@]12O | inconclusive: 0.631 µM [inhibitor, full curve] | –
Cc1ccc(-c2n[nH]c3c2C(c2cccs2)N(c2ccc(Cl)cc2)C3=O)cc1 (stereo not drawn) | inconclusive: 11.2 µM [inhibitor, partial curve, poor fit] | –
CCC(CC)C1C(C#N)=C(N)Oc2n[nH]c(-c3ccccc3)c21 (stereo not drawn) | inconclusive: 10 µM [inhibitor, single point] | –
COc1ccc(Cl)cc1NC(=O)CCCS(=O)(=O)c1nc(-c2ccc(OC)c(OC)c2)cc(C(F)(F)F)n1 | inconclusive: 28.2 µM [inhibitor, single point] | –
COc1ccccc1C(=O)/C=C/c1ccc(N2CCCCC2)c([N+](=O)[O-])c1 | inconclusive: 28.2 µM [inhibitor, single point] | –
CCOC(=O)c1c(C)[nH]c(-c2csc(N)n2)c1C | inconclusive: 10 µM [inhibitor, single point] | –
Nc1cccc(Nc2nc(OC(C(F)(F)F)C(F)(F)F)nc(OC(C(F)(F)F)C(F)(F)F)n2)c1 | inconclusive: 28.2 µM [inhibitor, single point] | –
Cc1c(O)cccc1C(=O)N[C@@H](CSc1ccccc1)[C@H](O)CN1C[C@H]2CCCC[C@H]2C[C@H]1C(=O)NC(C)(C)C | inconclusive: 11.2 µM [inhibitor, single point] | –
CCOC(=O)c1c(C)n(CCN2CCN(C)CC2)c2ccc(OC)cc12 | – | inactive: 6.47%
Cc1[nH]c2ccc(OC(F)(F)F)cc2c1CCNCc1cccc([N+](=O)[O-])c1 | inconclusive: 10 µM [inhibitor, partial curve] | –
Cc1ccc(N2C(=O)NC(=O)/C(=C\c3cn(CC(=O)O)c4ccccc34)C2=O)cc1 | – | inactive: 1.03%
CC1(C)Cc2cccc(OCC(=O)N3CCN(c4ccc([N+](=O)[O-])cc4)CC3)c2O1 | inconclusive: 11.2 µM [inhibitor, partial curve] | –
